B1: chimeric CTB003: Humanized chimeric monoclonal antibody directed to a common epitope shared by TRAIL-R1 and TRAIL-R2 polypeptides (protein)
light: DIQMTQSSSSFSVSLGDRVTITCKASEDIYNRLAWYQQKPGNAPRLLISGATSLETGVPSRFSGSGSGKDYTLSITSLQTEDVATYYCQQYWSTPLTFGAGTKLELKRAVAAPSVDIFPPSDEQLKSGTASVVCLLNNFYPREAKVQWKVDNALQSGNSQESVTEQDSKDSTYSLSSTLTLSKADYEKHKVYACEVTHQGLSSPVTKSFNRGEC
heavy: EVHLVESGGGLVRPGGSLKLSCAASGFAFSSYDMSWVRQTPEKRLEWVAYISDGGGITYYPDTMKGRFTISRDNAKNTLSLQMSSLKSEDTAMYYCARHITMVVGPFAYWGQGTLVTVSAASTKGPSVFPLAPCSRSTSGGTAALGCLVKDYFPEPVTVSWNSGALTSGVHTFPAVLQSSGLYSLSSVVTVPSSSLGTQTYICNVNHKPSNTKVDKRV[human IgG1 Fc with A327G V412M (EU numbers) omitted here]
B2: chimeric CTB006: Monospecific humanized chimeric monoclonal antibody directed to TRAIL-R2 receptor (protein)
light: DIVMTQSHKFMSTSVGDRVSITCKASQDVSTAVAWYQQKPGQSPRLLIYWASTRHTGVPDRFTGSGSGTDYTLTISSVQAEDQALYYCQQHYRTPWTFGGGTKLEIKRAVAAPSVDIFPPSDEQLKSGTASVVCLLNNFYPREAKVQWKVDNALQSGNSQESVTEQDSKDSTYSLSSTLTLSKADYEKHKVYACEVTHQGLSSPVTKSFNRGEC
heavy: EVQLQQSGPELVKPGASVRMSCKASGYTFTSYFIHWVKQRPGQGLEWIGWIYPGNVNTKYSEKFKGKATLTADKSSSTAYMQFSSLTSEDSAVYFCARGEAGYFDYWGQGTTLTVSSASTKGPSVFPLAPCSRSTSGGTAALGCLVKDYFPEPVTVSWNSGALTSGVHTFPAVLQSSGLYSLSSVVTVPSSSLGTQTYICNVNHKPSNTKVDKRV[human IgG1 Fc with A327G V412M (EU numbers) omitted here]

Assays:
[1] = test system: Du145 (Human Prostate Cancer); experiment: ATPLite cell viability / IC50; type: cell-based; settings: overnight culture, MEAN±SD of triplicated cultures
Method: (§1) ATPLite assay was used to determine cell viability and IC50 of each antibody. 1,000 target cells per well were cultured in 96-well plates in the presence of seven concentrations of 10-fold diluted chimeric antibody or their correspondent parental murine antibody with the highest concentration at 1000 ng/ml and the lowest concentration at 0.01 ng/11 After culture at 37° C. overnight cell viability was determined using the ATPLite kit according to the manufacturer's instructions (Packard Instruments, Meriden, Conn.): add 50 μl of cell lysis buffer and then 50 μl of substrate buffer. The reaction was counted in a luminescent reader. Cell viability was calculated as (cpm of treated cells/cmp of control cells)×100%. A dose-dependent killing curve is generated. The IC50 was calculated by linear regression. The results are presented as MEAN±SD of triplicated cultures.

[2] = test system: H-2122 (Human Lung Cancer); experiment: ATPLite cell viability / IC50; type: cell-based; settings: overnight culture, MEAN±SD of triplicated cultures
Method: as §1

[3] = test system: MIAcap (Human Pancreatic Cancer); experiment: ATPLite cell viability / IC50; type: cell-based; settings: overnight culture, MEAN±SD of triplicated cultures
Method: as §1

[4] = test system: Carov 3 (Human Ovarian Cancer); experiment: ATPLite cell viability / IC50; type: cell-based; settings: overnight culture, MEAN±SD of triplicated cultures
Method: as §1

[5] = test system: MDA231 (Human Breast Cancer); experiment: ATPLite cell viability / IC50; type: cell-based; settings: overnight culture, MEAN±SD of triplicated cultures
Method: (§2) After culture at 37° C. overnight, cell viability was determined using the ATPLite kit according to the manufacturer's instructions (Packard Instruments, Meriden, Conn.): add 50 μl of cell lysis buffer and then 50 μl of substrate buffer. The reaction was counted in a luminescent reader. Cell viability was calculated as (cpm of treated cells/emp of control cells)×100%.
(§3) Cell viability was determined by ATPLite assay at the end of each time point. […] Viable cells of both cell lines were reduced below 50% at 4 h after treatment, and 5% at 24 h after treatment (FIG. 4).
as §1, with “The results are presented as MEAN±SD of triplicated cultures.” left out

[6] = test system: Colo205 (Human Colorectal Cancer); experiment: ATPLite cell viability / IC50; type: cell-based; settings: overnight culture, MEAN±SD of triplicated cultures
Method: as §2, §3
as §1, with “The results are presented as MEAN±SD of triplicated cultures.” left out

[7] = biological target: T1, TRAIL-R3-Fc fusion antigen (Homo sapiens, UniProt O14798); experiment: ELISA binding specificity to TRAIL receptors; settings: purified antibody at various concentrations; plate coated at 1 μg/ml
T1 construct: a panel of soluble forms of TRAIL receptors as antigen
Method: (§4) In order to obtain a monoclonal antibody that binds TRAIL-R1 and TRAIL-R2 but not other TRAIL-receptors such as TRAIL-R3 and TRAIL-R4, ELISA plate is coated with the following recombinant proteins: 1. TRAIL-R1 and TRAIL-R2 hetero-dimer antigen, 2. TRAIL-R1-Fc fusion antigen, 3) TRAIL-R2-Fc fusion antigen, 4. TRAIL-R3-Fc fusion antigen 5. TRAIL-R4-Fc fusion antigen, and BSA as negative control. After incubation with various concentrations of purified antibody, HRP-conjugated goat anti-mouse IgG is added. After TMB substrate reaction, the optical density is recorded in a ELISA plate reader. The optical density values are used to estimate the binding of an antibody to the corresponding antigens.
(§5) ELISA plate was coated with the following recombinant proteins at 1 μg/ml in PBS at 4° C. overnight: 1. TRAIL-R1 and TRAIL-R2 hetero-dimer antigen, 2. TRAIL-R1-Fc fusion antigen, 3. TRAIL-R2-Fc fusion antigen, 4. TRAIL-R3-Fc fusion antigen, 5. TRAIL-R4-Fc fusion antigen, or BSA as negative control. After washing three times with PBS, the plate was blocked with 3% BSA PBS at room temperature for one hour. […] After washing three times with PBS, HRP-conjugated anti-mouse IgG antibody was then added for 30 minutes. After washing three times with PBS, TMB substrate buffer was added for 10 minutes and then the reaction was stopped by adding 2N H2SO4. The values of optical density were recorded in a ELISA plate reader with a dual wavelength at 450 nm/650 nm.
(§6) ELISA plate was coated with the following recombinant proteins at 1 μg/ml in PBS at 4° C. overnight: 1. TRAIL-R1 and TRAIL-R2 hetero-dinner antigen, 2. TRAIL-R1-Fc fusion antigen, 3. TRAIL-R2-Fc fusion antigen, 4. TRAIL-R3-Fc fusion antigen, 5. TRAIL-R4-Fc fusion antigen, or BSA as negative control. After washing three times with PBS, the plate was blocked with 3% BSA PBS at room temperature for one hour. The plate was incubated with various concentrations of purified the chimeric or the parental murine antibodies at 37° C. for one hour. The unbound antibodies were removed by washing three time with PBS, and then HRP-conjugated goat anti-mouse IgG1 for murine antibodies or HRP-conjugated goat anti-human kappa for human chimeric antibodies was added at 37° C. for 30 minutes. After washing three times with PBS, TMB substrate buffer was added for 10 minutes and then the reaction was stopped by adding 2N H2SO4. The values of optical density were recorded in a ELISA plate reader with a dual wavelength at 450 nm/650 nm.

[8] = biological target: T2, TRAIL-R4-Fc fusion antigen (Homo sapiens, UniProt Q9UBN6); experiment: ELISA binding specificity to TRAIL receptors; settings: purified antibody at various concentrations; plate coated at 1 μg/ml
T2 construct: a panel of soluble forms of TRAIL receptors as antigen
Method: as §4, §5, §6

BSA = BSA (Bos taurus, UniProt P02769); experiment: ELISA binding specificity, negative control; settings: purified antibody at various concentrations
Method: as §4
ELISA plate was coated with the following recombinant proteins at 1 μg/ml in PBS at 4° C. overnight: 1. TRAIL-R1 and TRAIL-R2 hetero-dimer antigen, 2. TRAIL-R1-Fc fusion antigen, 3. TRAIL-R2-Fc fusion antigen, 4. TRAIL-R3-Fc fusion antigen, 5. TRAIL-R4-Fc fusion antigen, or BSA as negative control. […] The values of optical density were recorded in a ELISA plate reader with a dual wavelength at 450 nm/650 nm.
ELISA plate was coated with the following recombinant proteins at 1 μg/ml in PBS at 4° C. overnight: 1. […] The values of optical density were recorded in a ELISA plate reader with a dual wavelength at 450 nm/650 nm.

Sequence of BSA (P02769 25-607): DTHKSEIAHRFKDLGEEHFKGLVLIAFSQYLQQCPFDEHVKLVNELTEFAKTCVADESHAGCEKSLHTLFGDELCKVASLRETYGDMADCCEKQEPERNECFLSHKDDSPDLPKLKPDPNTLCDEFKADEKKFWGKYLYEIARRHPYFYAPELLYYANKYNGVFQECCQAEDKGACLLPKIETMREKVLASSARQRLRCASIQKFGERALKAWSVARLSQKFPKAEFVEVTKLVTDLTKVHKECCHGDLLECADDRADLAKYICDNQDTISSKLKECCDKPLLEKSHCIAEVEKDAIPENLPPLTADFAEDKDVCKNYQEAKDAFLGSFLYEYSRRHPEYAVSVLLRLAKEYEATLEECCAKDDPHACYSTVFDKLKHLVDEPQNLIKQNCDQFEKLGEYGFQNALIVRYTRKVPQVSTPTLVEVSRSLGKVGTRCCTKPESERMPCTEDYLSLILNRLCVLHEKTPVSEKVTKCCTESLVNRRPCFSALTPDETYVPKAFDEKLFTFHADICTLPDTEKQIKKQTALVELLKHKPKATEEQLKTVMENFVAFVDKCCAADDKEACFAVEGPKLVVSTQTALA
T2 sequence (Q9UBN6 56-211 limits assumed, other chains not shown): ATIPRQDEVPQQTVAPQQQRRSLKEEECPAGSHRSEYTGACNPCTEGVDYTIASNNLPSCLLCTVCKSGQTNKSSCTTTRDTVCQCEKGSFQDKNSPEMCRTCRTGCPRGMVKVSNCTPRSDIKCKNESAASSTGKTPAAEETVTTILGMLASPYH
T1 sequence (O14798 26-236 limits assumed, other chains not shown): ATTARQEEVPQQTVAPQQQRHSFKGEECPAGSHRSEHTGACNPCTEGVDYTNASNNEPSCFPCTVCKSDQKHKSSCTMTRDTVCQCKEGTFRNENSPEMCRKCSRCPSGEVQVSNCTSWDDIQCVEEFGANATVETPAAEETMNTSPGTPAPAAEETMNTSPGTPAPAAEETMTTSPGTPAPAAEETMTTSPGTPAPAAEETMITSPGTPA

Row | Molecule | IC50 [1] [µg/mL] | IC50 [2] [µg/mL] | IC50 [3] [µg/mL] | IC50 [4] [µg/mL] | IC50 [5] [µg/mL] | IC50 [6] [µg/mL] | binding in ELISA [7] | binding in ELISA [8] | binding in ELISA (BSA)
1 | B1 | 0.0398 ± 0.0042 | 0.0291 ± 0.0025 | 0.0125 ± 0.0021 | 0.0225 ± 0.0015 | 0.0042 ± 0.0012 | 0.0066 ± 0.0013 | does not react | does not react | does not react
2 | B2 | – | – | – | – | – | – | does not react | does not react | does not react

From patent publication US7897730B2, “TRAIL receptor-binding agents and uses of the same” (Beijing Cotimes Biotech Ltd., priority 2006, dated 2011)
